This is an account of results in PubChem BioAssay AID1745853 (National Center for Advancing Translational Sciences (NCATS), 2022).

Experiment in all cases: Primary Screen for Target Class Profiling of Small Molecule Inhibitors of Methyltransferases
Experiment [1] addresses Glycine N-methyltransferase (Homo sapiens) (UniProt Q14749). To be noted: purified enzyme, MTase-Glo SAH luminescence; measured here: GNMT inhibition; at 40 µM; stronger effect = lower value. An excerpt: (§1) PI: Matthew D. Hall Ph.D. and Quinlin M. Hanson Ph.D.
(§2) National Center for Advancing Translational Sciences (NCATS)
(§3) National Institute of Health (NIH), Rockville, MD
(§4) Target class profiling (TCP) is a chemical biology approach amenable to investigating understudied biological targets. TCP is achieved by developing a generalizable assay platform and applying it to screen a curated set of compound libraries against representative members of a target class. Small molecule methyltransferases (SMMTase) are a subclass of methyltransferase that act on metabolites to modulate signaling pathways, metabolize xenobiotics, or balance the available methyl pool. We screened four curated libraries totaling 27,574 unique compounds against the SMMTases nicotinamide N-methyltransferase (NNMT), phenylethanolamine N-methyltransferase (PNMT), histamine N-methyltransferase (HNMT), glycine N-methyltransferase (GNMT), catechol O-methyltransferase (COMT), and guanidinoacetate N-methyltransferase (GAMT). The data generated by this TCP can be leveraged for informed tool molecule development. For example, in the associated publication we identified a chemotype of HNMT-selective inhibitors. Additionally, we identified a putative SMMTase-selective inhibitor with potential as a tool molecule for studying broader methyltransferase biology.
(§5) High-through put screening assays were developed at the National Center for Advancing Translational Science (NCATS) for the enzymes NNMT, PNMT, HNMT, GNMT, COMT, and GAMT. Enzymatic activity was measured as a function of SAM cofactor conversion using the MTase Glo kit (Promega) for all enzymes. All assays were performed in 1536-well format with substrates and SAM concentrations at KM values. Enzyme concentration and assay timing were optimized for 10-20% SAM conversion. Initial screening of 27,574 compounds was done as single-point assays using the highest compound concentration (40 uM). […] These compounds were replated in 11-point dose response and assayed against NNMT, PNMT, HNMT, GNMT, COMT, GAMT, and a counter-assay. The IC50 and efficacy (maximal response) values were determined for each dose-response curve. These values are also accounted for in the area under the curve (AUC) values.
(§6) PROTOCOL TABLE (as described by Inglese J, Shamu CE and Guy RK. 2007)
(§7) SEQUENCE No. (e.g., 1, 2, 3, etc.); […] (e.g., Cells, Incubation, Reagent, etc.); VALUE; DESCRIPTION.
(§8) 1; Reagent; 2 uL; SMMTase Enzyme (2x) in reaction buffer, columns 1- 48.
(§9) 2; Reagent; 1 uL; SAM (4x) in reaction buffer, columns 1-48.
(§10) 3; Controls; 23 nL; DMSO in column 4; sinefungin in DMSO (0 uM - 40 uM) in 7-point 1:2 dilution series (n = 2) in column 2.
(§11) 4; Compounds; 23 nL; Columns 5-48.
(§12) 5; Reagent; 1 uL; Substrate (4x) in reaction buffer, columns 2-48.
(§13) 6; Time; 20-30 min; Incubation.
(§14) 7; Reagent; 1 uL; MTase-Glo reagent (5X), columns 1-48.
(§15) 8; Time; 30 min; Incubation.
(§16) 9; Reagent; 5 uL; MTase-Glo Detection reagent, columns 1-48.
(§17) 10; Time; 30 min; Incubation, luminescence evolution.
(§18) 11; Detection; Luminescence; ViewLux uHTS Microplate Imager (PerkinElmer).
(§19) NOTES (numbers refer to Sequence numbers above)
(§20) 1, 2, 5. White Medium Binding Greiner 1536-well plates (Cat #789175-F, Greiner Bio-One, Monroe, NC); Reaction buffer: 50 mM Tris, pH 8.0, 3 mM MgCl2, 1 mM EDTA, 50 mM NaCl, 1 mM DTT, and 0.1 mg/mL BSA. Evaporation was prevented by covering assay plates with metal lids containing holes to allow gas diffusion.
(§21) 1. Six SMMTase were profiled: HNMT, GNMT, PNMT, COMT, NNMT, GAMT
(§22) 5. The corresponding substrate was used for each enzyme: HNMT - 5.3 uM Histamine; GNMT - >500 uM Glycine; PNMT - 16.2 uM Norephinephrine; COMT - 13.7 uM Norephinephrine; NNMT - 3.8 uM Nicotinamide; GAMT - 2.5 uM Guanidinoacetate.6, 8, 10. Room temperature
(§23) 6. Final reaction conditions: 10 nM COMT, 5 uM SAM, 15 uM norepinephrine, 50 mM Tris, pH 8.0, 3 mM MgCl2, 1 mM EDTA, 50 mM NaCl, 1 mM DTT, and 0.1 mg/mL BSA; refer to tables 2 and S1 for specific timing.
8. […]

Experiment [2] concerns the target Guanidinoacetate N-methyltransferase (Homo sapiens) (UniProt Q14353). To be noted: purified enzyme, MTase-Glo SAH luminescence; measured here: GAMT inhibition; at 40 µM; stronger effect = lower value.
Source text: as §1, §2, §3, §4, §5, §6, §7, §8, §9, §10, §11, §12, §13, §14, §15, §16, §17, §18, §19, §20, §21, §22, §23
8. […]

In experiment [3] the target is Histamine N-methyltransferase (Homo sapiens) (UniProt P50135). The settings on record: purified enzyme, MTase-Glo SAH luminescence; measured here: HNMT inhibition; at 40 µM; stronger effect = lower value.
Source text: as §1, §2, §3, §4, §5, §6, §7, §8, §9, §10, §11, §12, §13, §14, §15, §16, §17, §18, §19, §20, §21, §22, §23
8. […]

The target in experiment [4] is Nicotinamide N-methyltransferase (Homo sapiens) (UniProt P40261). The settings on record: purified enzyme, MTase-Glo SAH luminescence; measured here: NNMT inhibition; at 40 µM; stronger effect = lower value.
Source text: as §1, §2, §3, §4, §5, §6, §7, §8, §9, §10, §11, §12, §13, §14, §15, §16, §17, §18, §19, §20, §21, §22, §23
8. […]

Experiment [5] deals with Phenylethanolamine N-methyltransferase (Homo sapiens) (UniProt P11086). The settings on record: purified enzyme, MTase-Glo SAH luminescence; measured here: PNMT inhibition; at 40 µM; stronger effect = lower value.
Source text: as §1, §2, §3, §4, §5, §6, §7, §8, §9, §10, §11, §12, §13, §14, §15, §16, §17, §18, §19, §20, §21, §22, §23
8. […]

Where “and” joins values, the source holds several entries; their conditions need not be identical. Identical values can stand only once. This is one part of the list. The main result of the screen is listed elsewhere. These columns were measured beside it and carry no call.
% is set by controls: 0 for no effect and ±100 for the full control effect.

With `CC1(C(=O)NC2CCCCC2)Cn2c(cc3occc32)C(=O)N1Cc1cccnc1` (stereo not given), the activity change, negative = inhibition is -3.12% in experiment [1]; -2.16% in experiment [2]; 9.02% in experiment [3]; -0.304% in experiment [4]; -3.03% in experiment [5].

Take `CC1CCC23COC(=O)C2=CC(O)CC3C1(C)CCc1ccoc1` (stereo not given): the activity change, negative = inhibition in experiment [1] is -1.73%; in experiment [2], -7.2%; in experiment [3], 5.07%; in experiment [4] it was -11%; in experiment [5], -6.79%.

For the compound `COC1CC(=O)C23C(=O)NC(CC(C)C)C2C(C)C(C)=CC3/C=C(\C)CCC(O)C1O` (stereo not given), the activity change, negative = inhibition in experiment [1] is 0%; in experiment [2], -0.677%; in experiment [3], -0.639%; in experiment [4], -11.6%; in experiment [5], 1.26%.

As for `CC1(C(=O)O)CCCC2(C)C3=CCC4CC3(CCC12)CC4CO` (stereo not given), the activity change, negative = inhibition in experiment [1] is -1.22%; in experiment [2] it was -5.24%; in experiment [3] it was 8.41%; in experiment [4], -20.6%; in experiment [5], -13.7%.

For `Cc1cccc(CNC(=O)c2ncn3c2C(=O)N(C2CC2)C(C)(C(=O)NC2CCCC2)C3)c1` (stereo not given), the activity change, negative = inhibition in experiment [1] is -3.2%; in experiment [2], 0%; in experiment [3], 5.9%; in experiment [4], -3.39%; in experiment [5], -0.055%.

On to `CC1(C(=O)NC2CCCCC2)Cn2c(cc3ccccc32)C(=O)N1Cc1ccc(Cl)cc1` (stereo not given), for which the activity change, negative = inhibition in experiment [1] was -6.36%; in experiment [2], -1.86%; in experiment [3] it was 3.21%; in experiment [4] it was -3.63%; in experiment [5], -3.08%.

In the case of `CCC(C)NC(=O)c1ccc2c(=O)n(C)c3nnc(SCC(=O)Nc4ccc(C)cc4)n3c2c1` (stereo not given), the activity change, negative = inhibition in experiment [1] worked out at 8.47%; in experiment [2], 0%; in experiment [3], 8.5%; in experiment [4], 11.6%; in experiment [5] it was 7.48%.

For the compound `CCOC(=O)c1cccc(CNc2ccc(N(C)C(=O)Nc3ccccc3)cc2)c1`, the activity change, negative = inhibition was 0.81% in experiment [1]; -4.26% in experiment [2]; 6.57% in experiment [3]; -20.7% in experiment [4]; -38.6% in experiment [5].

Take `Cc1cc(C(=O)N(C)CC2(C)CCOCC2)nn1C`: the activity change, negative = inhibition is -0.707% in experiment [1]; -5.49% in experiment [2]; 0.589% in experiment [3]; 0.211% in experiment [4]; -3.36% in experiment [5].

As for `CN1CCC[C@@H]1Cc1c[nH]c2ccc(CCS(=O)(=O)c3ccccc3)cc12`, the activity change, negative = inhibition in experiment [1] is 8.07% and 1.25%; in experiment [2] it was 6.88% and -0.322% and -4.5%; in experiment [3], -87.2% and -89.1%; in experiment [4], -3.61% and -7.64% and -13.1%; in experiment [5], 2.52% and 2.76% and -2.57%.

For `CC(C)C(=O)N1CCC2(CC1)OC(=O)N(Cc1ccccc1)C2(C)c1cccnc1` (stereo not given), the activity change, negative = inhibition in experiment [1] is -0.88%; in experiment [2] it was 0.365%; in experiment [3], -1.23%; in experiment [4], -6.65%; in experiment [5], -0.863%.

With `O=C(CCc1nnc2n(CCc3ccccc3)c(=O)c3ccccc3n12)NCCCN1CCCC1=O`, the activity change, negative = inhibition in experiment [1] was 0.651%; in experiment [2] it was 4.82%; in experiment [3] it was 4.83%; in experiment [4], 11.6%; in experiment [5] it was 1.07%.

Regarding `CC(C)[N+](C)(CCOC(=O)C1c2ccccc2Oc2ccccc21)C(C)C`, the activity change, negative = inhibition in experiment [1] was -3.09%; in experiment [2], 3.71%; in experiment [3], -2.34%; in experiment [4], -7.84%; in experiment [5], 3.07%.

Turning to `CNC(=O)COC(=O)NCCC1CCN(c2cccc(C)n2)CC1`, the activity change, negative = inhibition in experiment [1] was 7.54%; in experiment [2], 8.59%; in experiment [3] it was 10.7%; in experiment [4] it was -9.91%; in experiment [5], 5.27%.

For the compound `CCN(CC)C(=O)CCn1ccc2cc(S(=O)(=O)N3CCCCC3)ccc21`, the activity change, negative = inhibition was 7.33% in experiment [1]; 0.23% in experiment [2]; 3.58% in experiment [3]; 1.11% in experiment [4]; -6.45% in experiment [5].
